Results as given in PubChem BioAssay AID624296 (National Center for Advancing Translational Sciences (NCATS), 2012).
Out of some 350,000 compounds screened, about 9,900 (2.8%) were called active. Inconclusive means that the source gave no clear call. Such entries were picked first, then a sample of the others. Calls come from the whole dose curve; as a rule, active = well fitted activation curve with a large enough effect; inconclusive = small, poorly fitted or top-dose-only effect; inactive = no such curve, though single readings can be large or run the other way. Potencies of inconclusive entries are left out as doubtful fits.

Experiment: A quantitative high throughput screen for small molecules that induce DNA re-replication in MCF 10a normal breast cells. For activity, positive = re-replication: % of control where 0% means no effect. Note: nearly all actives have a fitted effect of over 50% in size.
Conditions: MCF 10A DNA re-replication, Hoechst nuclear intensity, 48 h; activity, positive = re-replication: at 46.1 µM (top of the series)
Potency is the fitted concentration of half-maximal effect; tags give direction and shape of the fitted curve.

| Structure (SMILES) | Potency | activity, positive = re-replication |
| --- | --- | --- |
| CCOc1ccc(/C=C2\SC(=S)N(CCC(=O)Nc3ccccc3C(=O)O)C2=O)cc1 | inconclusive [activator, partial curve, poor fit] |  |
| COc1ccc(C(=O)N[C@H](C(=O)Nc2nc3ccccc3[nH]2)C(C)C)cc1 | inconclusive [activator, full curve, poor fit] |  |
| CC(=O)c1cccc(NC(=O)c2ccc3c(c2)OCO3)c1 | inconclusive [activator, single point] |  |
| Cc1cc(OCC(=O)Nc2ccccc2N2CCCC2)ccc1C(C)C | inconclusive [activator, single point] |  |
| COC(=O)c1ccc(C(=O)OC)c(NC(=S)N2CCN(C(=O)C3CCCO3)CC2)c1 (configuration not stated) | inconclusive [activator, single point] |  |
| COc1ccc2sc(-c3ccccc3OC)c(-c3ccc(OCCN4CCOCC4)cc3)c2c1 |  | inactive: -7.12% |
| Cc1cc(NC(=O)c2cccc(Br)c2)n[nH]1 |  | inactive: -4.15% |
| Cc1ccccc1NC(=O)c1oc(=O)c2ccccc2c1-c1ccccc1 |  | inactive: 8.24% |
| Cc1ccc(OCC(=O)Nc2cc(-c3nn4c(C)nnc4s3)ccc2C)cc1 |  | inactive: -4.34% |
| COc1ccc(C2CC(=O)c3cc(OC)ccc3O2)cc1 (configuration not stated) | inconclusive [activator, partial curve, poor fit] |  |
| COCCNc1c2c(nc3c(-c4ccccc4)c(C)nn13)CCCC2 |  | inactive: 24.3% |
| CCN1CCN(C(=O)c2cc(-c3ccc(Cl)s3)nc3ccccc23)CC1 | inconclusive [activator, single point] |  |
| CCC(CC)c1nnc(NC(=O)c2ccc3ccccc3n2)s1 | inconclusive [activator, single point] |  |
| COc1ccccc1C(=O)C1CCCN(Cc2ccc3c(c2)OCCO3)C1 (configuration not stated) | inconclusive [activator, single point] |  |
| COc1ccccc1Nc1ncnc2c1cnn2-c1cccc(C)c1 | inconclusive [activator, partial curve, poor fit] |  |
| COc1ccc(NS(=O)(=O)c2cc(NC(=O)c3ccc(Cl)cc3)ccc2N2CCOCC2)cc1 | active: 2.31 µM |  |
| CCn1c(SCC(=O)NC2CCCCC2)nnc1-c1cccnc1 |  | inconclusive: 29.5% [activator] |
| COC(=O)CSC1=C(C#N)C(c2ccsc2)CC(=O)N1 (configuration not stated) | inconclusive [activator, partial curve, poor fit] |  |
| O=C1C=C(c2cccc(Cl)c2)C[C@@H](c2ccc(F)cc2)C1 | inconclusive [activator, single point] |  |
| Cc1cc(C(=O)Nc2ccc(Nc3ccccc3)cc2)ccc1[N+](=O)[O-] | inconclusive [activator, single point] |  |
| OC(C#CCN1CCCCC1)(c1ccccc1)c1ccccc1 | inconclusive [activator, partial curve, poor fit] |  |
| CC(/C=N/NC(=O)c1cc(-c2ccncc2)nc2ccccc12)=C\c1ccco1 | inconclusive [activator, full curve, poor fit] |  |
| CCNc1nc(NCC)nc(SCCOC(=O)COc2ccc(Cl)cc2Cl)n1 |  | inactive: -0.837% |

| Structure (SMILES) | Potency | activity, positive = re-replication |
| --- | --- | --- |
| CC1=C(Cl)C2=NS(=O)(=O)CCN2C=C1Cl | inconclusive [activator, partial curve, poor fit] |  |
| CC(C)(C)c1ccc(C(=O)CSc2nc3ccccc3c(=O)[nH]2)cc1 | inconclusive [activator, partial curve, poor fit] |  |
| CCOc1ccc(-n2c(N)c(C(=O)NCc3ccco3)c3nc4ccccc4nc32)cc1 | active: 12.6 µM |  |
| O=C(Nc1ccc(N2CCOCC2)c(Cl)c1)C1CCCCC1 | inconclusive [activator, partial curve, poor fit] |  |
| CCCCC1=CC2=C(c3ccco3)C(=O)C(C)(OC(=O)c3ccc(OC)cc3)C(=O)C2=CN1Cc1ccccc1 (configuration not stated) | inconclusive [activator, single point] |  |
| COc1ccc(Nc2nc3ccccc3nc2NS(=O)(=O)c2cccs2)cc1 | inconclusive [activator, partial curve] |  |
| CCN(Cc1ccc(OC)c(F)c1)C(=O)c1cc2ccccc2o1 | inconclusive [activator, partial curve, poor fit] |  |
| Cn1nc(-c2ccccc2)cc1NS(=O)(=O)c1ccc(C#N)cc1 | inconclusive [activator, single point] |  |
| COc1cc(/C=C(\C#N)C(N)=O)ccc1OS(=O)(=O)c1ccc(C)cc1 |  | inactive: 15.7% |
| COc1ccc(C(=O)NCC(=O)OCC(=O)c2cc(OC)c(OC)c(OC)c2)cc1OC |  | inactive: 5.62% |
| CCOc1ccc(S(=O)(=O)N2CCC(C(=O)N3CCN(c4ccccc4F)CC3)CC2)cc1C | inconclusive [activator, partial curve, poor fit] |  |
| COc1ccc(CSc2nnc(SCc3ccc([N+](=O)[O-])cc3)s2)cc1 | inconclusive [activator, full curve, poor fit] |  |
| CC(=O)c1ccc(OCC(=O)N2CCCC2c2ccc3c(c2)OCCCO3)cc1 (configuration not stated) |  | inactive: -0.531% |
| O=C(C[n+]1cc(-c2ccc(Cl)cc2)n2c1CCC2)N1c2ccccc2Sc2ccccc21 |  | inactive: -5.14% |
| CCOc1cc(/C=N/NC(N)=O)cc(Br)c1OCc1ccccc1 |  | inactive: -1.65% |
| c1cn(CCCNC2=NCCCCC2)cn1 | inconclusive [activator, single point] |  |
| COc1cccc(CNC(=O)CCS(=O)(=O)c2ccc3c(c2)oc(=O)n3C)c1 |  | inactive: 11.1% |
| Cc1ccc(N(C(=O)c2csnn2)C(C(=O)NC2CCCC2)c2cccnc2)c(C)c1 (configuration not stated) |  | inactive: -16.8% |
| CN(C)CCN1C(=O)c2oc3ccc(Cl)cc3c(=O)c2C1c1cccc(Br)c1 (configuration not stated) |  | inactive: -1.27% |
| Cc1cc(C(F)(F)F)c2c(N)c(C(=O)Nc3cc(C)on3)sc2n1 | inconclusive [activator, partial curve, poor fit] |  |
| Cc1cccc(C(=O)OCC(=O)NN2C(=O)NC3(CCC(C)CC3)C2=O)c1O (configuration not stated) |  | inactive: 18.4% |
| O=C(Oc1ccc(N(C(=O)c2ccncc2)S(=O)(=O)c2ccc(Cl)cc2)cc1)c1ccncc1 | inconclusive [activator, partial curve, poor fit] |  |
| CCc1cccc2sc(N3CCN(C(=O)c4ccc([N+](=O)[O-])o4)CC3)nc12 | active: 3.66 µM |  |

| Structure (SMILES) | Potency | activity, positive = re-replication |
| --- | --- | --- |
| O=Cc1cc([N+](=O)[O-])ccc1N1CCN(Cc2ccc3c(c2)OCO3)CC1 | inconclusive [activator, single point] |  |
| CN(C)S(=O)(=O)c1ccc(N2CCCC2)c(C(=O)Nc2nc3c(ccc4ccccc43)s2)c1 | inconclusive [activator, full curve, poor fit] |  |
| CCCCC(=O)Nc1cccc(NC(=O)c2cccc([N+](=O)[O-])c2)c1 |  | inactive: 3.1% |
| O=C(c1cc(-c2ccc(Cl)cc2)n(-c2ccc(Cl)c(Cl)c2)n1)N1CCOCC1 | inconclusive [activator, single point] |  |
| CCOC(=O)/C=C1/SCC(=O)N1CC(=O)NC12CC3CC(CC(C3)C1)C2 | inconclusive [activator, single point] |  |
| COC(=O)C1C(C(C)C)N(c2ccccc2)OC1(C)O (configuration not stated) | inconclusive [activator, single point] |  |
| COc1ccc(/C=C/C(=O)NC(=S)NNC(=O)c2cccs2)cc1 | active: 10.3 µM |  |
| COc1ccc(C(=O)CSC2=C(C#N)C3(CCCCC3)C(C#N)=C(N)N2)cc1 | inconclusive [activator, partial curve, poor fit] |  |
| O=C(CCNS(=O)(=O)c1ccc(OC(F)(F)F)cc1)NCCc1c[nH]c2ccccc12 | inconclusive [activator, single point] |  |
| COc1ccc(NC(=O)O/N=C2/CCCc3ccc(OC)cc32)cc1 | inconclusive [activator, partial curve, poor fit] |  |
| COc1cc(Br)c(-c2sc(Nc3ccccc3)n[n+]2-c2ccccc2)cc1OC | inconclusive [activator, full curve, poor fit] |  |
| CN(CC(=O)Nc1ccc(Cl)c(C(F)(F)F)c1)C(=O)CC1Sc2ccccc2NC1=O (configuration not stated) | inconclusive [activator, single point] |  |
| CCOc1ccc(S(=O)(=O)N2CCN(C(=O)c3cc([N+](=O)[O-])ccc3N3CCOCC3)CC2)cc1 |  | inactive: -1.78% |
| COc1ccc(-c2cc(C(=O)N/N=C/c3ccc(OC)c(COCC(F)(F)C(F)F)c3)c3ccccc3n2)c(OC)c1 | active: 23.1 µM |  |
| CC1CC(C)CN(C(=O)c2cc3ccccc3o2)C1 (configuration not stated) | inconclusive [activator, partial curve, poor fit] |  |
| Cc1[nH]c2ccccc2c1C(=O)/C=C\c1ccccc1Cl | inconclusive [activator, single point] |  |
| Cc1ccc2nc(-c3ccc(NC(=O)CSc4nccc(=O)[nH]4)cc3)sc2c1 | inconclusive [activator, single point] |  |
| COc1ccc(NC2=NC(C)(CO)CS2)cc1 (configuration not stated) | inconclusive [activator, partial curve, poor fit] |  |
| Cc1ccc(SCCNC(=O)c2ccc(C)c(S(=O)(=O)Nc3cccc(C)c3)c2)cc1 |  | inactive: 12.9% |
| Cn1cnc2c(oc3ccccc32)c1=O |  | inactive: 3.35% |
| CC(C)(C)OC(=O)N1CCC(NC(=O)c2[nH]cnc2C(=O)N[C@@H](Cc2ccccc2)C(=O)OCc2ccccc2)CC1 | active: 14.6 µM |  |
